Laboratory results published in PubChem BioAssay AID1508624 (National Center for Advancing Translational Sciences (NCATS), 2021).
The whole screen tested about 48,000 compounds, of which about 120 (0.25%) were called active. Not shown: some 4% with an inconclusive outcome. Calls come from the whole dose curve; as a rule, active = well fitted activation curve with a large enough effect; inconclusive = small, poorly fitted or top-dose-only effect, or another doubt; inactive = no such curve, though single readings can be large or run the other way. The list shows a part of the results.

Experiment: Primary qHTS for Identification of Small Molecule Activators of Huntingtin-Antisense Promoter Activity; note: nearly all actives have a fitted effect of over 55% in size
Conditions: HEK293 HTT-AS promoter firefly luciferase reporter, 24 h; series mostly up to 57.5 µM; activity change, positive = activation: at the top concentration
In short: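 Firefly luciferase readout (Dual-Glo, 10 min RT) after 24 h, 37 °C compound exposure (final up to 57.5 uM) of HEK293 reporter cells cultured 24 h beforehand; PTC124 at 50 uM final as control inhibitor; activity scaled vehicle 0%, zero RLU -100%.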

Activity change, positive = activation, inactive:
COc1cccc(NC(=O)CN2C(=O)c3cccnc3Oc3ccc(Cl)cc32)c1 -18.3%, O=C(NCC1CCN(Cc2cccc(Cl)c2)CC1)Nc1cc(Cl)ccc1Cl -27.1%, CC(C)(C)OC(=O)N1CCC(c2c(C(=O)N3CCC(c4ccccc4)C3)cnn2-c2cccc(Cl)c2)CC1 (stereo not given) -35.3%, N[C@@H](CSSC[C@H](N)C(=O)O)C(=O)O -7.34% [at 0.74 µM, percent change from vehicle, -100% = no light], CCCCCS(=O)(=O)c1oc(-c2cccs2)nc1S(=O)(=O)c1ccc(C)cc1 -10.3%, CCCCN(CCCC)C(=O)c1cc2c(=O)n3cccc(C)c3nc2s1 -13.7%, COc1ccc(C2CC(=O)N(CC(=O)Nc3cc(C)ccc3C)c3ccccc3S2)cc1 (stereo not given) -18%, Cc1cccc(OCC(=O)N(Cc2cccs2)c2ccc(Cl)cc2)c1C -32.2%, O=C1c2oc3ccccc3c(=O)c2C(c2ccccc2)N1Cc1ccc2c(c1)OCO2 (stereo not given) 6.23%, CN1C(=O)c2ccccc2Sc2ccc(NC(=O)c3ccccc3F)cc21 -41.8%, Cc1c(-c2nsc(NC(=O)c3ccccc3)n2)nnn1-c1ccc(C(F)(F)F)c(Cl)c1 -19.7%, CCOC(=O)c1cccc(NC(=O)[C@@H](c2ccccc2)N2Cc3ccccc3C2=O)c1 -22.9%, Cc1cc(C)c(NC(=O)Cc2csc(C)n2)c(Cl)c1 -2.53%, CC1COc2c(N3CCN(C)CC3)c(F)cc3c(=O)c(C(=O)O)cn1c23 (stereo not given), CCN1C(=O)c2ccccc2Sc2ccc(C(=O)NCCCN(CC(C)C)CC(C)C)cc21 -5.52%, CCOC(=O)c1c(S(=O)(=O)N2CCCC(C(=O)Nc3cccc(Cl)c3)C2)c(C)n(C)c1C (stereo not given) 0%, CCCCN(CC)CCCNC(=O)CCN1N=C(c2ccc(OC)cc2)CCC1=O -5.95%, COc1ccccc1NC(=O)C(=O)NCCc1csc(-c2cccc(F)c2)n1 -27.8%, COc1cccc(CNC(=O)c2cc3c(s2)-c2ccccc2OC3)c1 -6.15%, COc1ccc(-n2c(=O)c3c4c(sc3n(Cc3ccc(F)cc3)c2=O)CCCC4)c(OC)c1 -3.86%, COc1ccccc1NC(=O)C1=C(C)Nc2ncnn2C1c1ccccc1C(=O)O (stereo not given) -1.04%, COc1ccc(NC(=O)c2cc(C3CC3)nc3c2c(C)nn3-c2ccccc2)cc1 -23.8%, CCOc1ccccc1C(=O)Nc1ccc2nc(N(CC)CC)cc(C)c2c1 -3.96%, Cc1ccc(OCC(=O)Nc2nnc(SCc3cc(=O)c4ccccc4[nH]3)s2)cc1 -18.4%, Cc1cc(N2CCCCC2)nc2ccc(NC(=O)c3cccc(Cl)c3)cc12 0%, CCOc1ccc(CNS(=O)(=O)c2cc3c(cc2C)NC(=O)CO3)cc1OC -18.1%, CCOc1ccc(C(=O)N2CCC(c3nc4ccccc4o3)CC2)cc1 -29%, CSc1cccc(NC(=O)CN2C(=O)COc3ccc(Cl)cc32)c1 -27.1%, CCOc1ccc(OCC)c(NC(=O)c2nnn(CC(=O)Nc3ccc(C)cc3C)c2N)c1 -2.89%, CC(C)=CCC1C(=O)N(c2ccccc2)N(c2ccccc2)C1=O -18%, Cc1cc2n(n1)C(c1cc(C(C)(C)C)c(O)cc1O)Nc1ccccc1-2 (stereo not given) 0.777%, COc1ccccc1CNC(=O)C(NS(=O)(=O)c1cccs1)C(C)C (stereo not given) -3.97%, COc1ccc(NC(=O)COc2ccc(-c3nn(C)c(=O)c4ccccc34)cc2)cc1 -29.1%, COc1ccc(-c2cc3ccc(O)c(CN4CCOCC4)c3oc2=O)cc1OC 3.74%, CCCCOc1ccc(C(=O)Nc2cccc(-c3nc4cccnc4s3)c2)cc1 5.49%, COc1ccccc1-c1nnc(SCC(=O)c2ccc(Cl)cc2)n1-c1ccccc1 -26.5%, CCCCc1ccc(NC(=O)c2cc3c(=O)n4ccccc4nc3s2)cc1 6.64%, CCOc1ccc(NC(=O)CSc2nc3c(oc4ccccc43)c(=O)n2-c2ccccc2C)cc1 -15.4%, CC(NC(=O)c1ccc2c(c1)CCN2S(=O)(=O)c1ccc(Cl)cc1)c1ccccc1 (stereo not given) -20.2%, CCn1ccc2cc(S(=O)(=O)N3CCCN(C(=O)Nc4cccc(Cl)c4)CC3)ccc21 -27.5%, COc1ccc(N(C)C(=O)c2cn(C3CCCCC3)c(=O)c3c2c2ccccc2n3C)cc1 -26.5%, COc1ccc(C2=NN(CC(=O)NCCc3ccc(OC)c(OC)c3)C(=O)CC2)cc1 -7.08%, CCOC(=O)C1CCN(C(=O)c2ccc(-n3ccc4ccccc43)s2)CC1 14.5%, COc1ccc(Cn2ccn(Cc3cccc(OC)c3)c(=O)c2=O)cc1 -14.9%, O=C1CC[C@H](C(=O)N2CCCCC2)N1 -1.28%, Cc1ccccc1C1CC(=O)Nc2ccc3ccccc3c21 (stereo not given) -30.4%, Cc1ccc(C(=O)c2cn(CC(=O)Nc3ccc(C)cc3Cl)c3nc(C)ccc3c2=O)cc1 -11.9%, Cc1cccc(NC(=O)N2CC(=O)Nc3sc4c(c3C2c2ccccc2)CCCC4)c1C (stereo not given) -35.8%, CCOc1cc(CNC(=O)c2ccc3c(c2)NC(=O)C2CCCCN32)cc(OCC)c1OCC (stereo not given) -10.3%, Cc1ccc(Cl)cc1N1CCN(C(=O)c2ccc3c(c2)N(Cc2ccc(F)cc2)CCS3)CC1 -19%, CCOc1ccccc1OCCCn1c(-c2ccc(Cl)cc2)nc2ccccc2c1=O -14.9%, Cc1cn2c(=O)cc(COC(=O)c3ccc(NC(=O)COc4ccccc4F)cc3)nc2s1 -7.16%, Cc1cc(C)cc(-n2c(-c3ccccc3)c(C)n3c4c(=O)n(C)c(=O)n(C)c4nc23)c1 -0.262%, CCCS(=O)(=O)N1CC(=O)N(c2ccc(Cl)cc2C)C(C)(C(=O)NC2CCCC2)C1 (stereo not given) -19.8%, COc1cc2nc(NC(=O)c3ccc(S(=O)(=O)N4CCOCC4)cc3)sc2cc1OC -21.1%, COc1ccc(NC(=O)CSC2=Nc3ccccc3C3=NC(CCC(=O)NC4CCCCC4)C(=O)N23)cc1 (stereo not given) -3.63%, CC(=O)c1cccc(NC(=O)C2CCN(S(=O)(=O)c3ccc4c(c3)oc(=O)n4C)CC2)c1 -14.4%, CCOC(=O)c1cccc(NC(=O)CCn2c(-c3ccc(F)cc3)cc(C(=O)OCC)c2C)c1 -29%, N[C@@H](CSCCCO)C(=O)O -0.0036% [at 25.1 µM, percent change from vehicle, -100% = no light], O=C(CSCc1ccccc1Cl)N1CCN(c2ccc(Cl)cc2)CC1 -9.96%, COc1c(C)cccc1C(=O)Nc1cccc2ccc(C)nc12 -25.7%, COc1cc(C2CC(=O)Oc3c2c(=O)n(C)c2ccccc32)ccc1O (stereo not given) 0%, CCOC(=O)C1CCN(S(=O)(=O)c2ccc3c(c2)N(C)C(=O)CC(=O)N3C)CC1 1.09%, COc1ccc(C(=O)NC2(C(F)(F)F)C(=O)Nc3c2c(=O)[nH]c(=O)n3CCc2ccc(OC)c(OC)c2)cc1 (stereo not given) -6.67%, COc1ccc(-c2cc(C(C)=O)c(C)n2CCC(=O)Nc2cc(Cl)ccc2C)cc1 -36.9%, CC(=O)SCC(Cc1ccccc1)C(=O)NCC(=O)OCc1ccccc1 (stereo not given) -36.5%, O=C(COc1ccccc1)Nc1ccc2nc(SCCOc3ccccc3)sc2c1 -0.575%, CCOC(=O)c1c(C)[nH]c(C)c1S(=O)(=O)N(C)CC(=O)Nc1ccc(C)cc1C -0.659%, Cc1cc(C)c2oc(-c3cccc(NC(=O)COc4ccc([N+](=O)[O-])cc4)c3)nc2c1 -28.1%, Cc1ccc(NC(=O)Cn2c(=O)n(CC3CCCO3)c(=O)c3ccccc32)cc1 (stereo not given) -20.6%, Cc1ccc(Cl)cc1N1CCN(C(=O)c2ccc(CS(=O)(=O)c3ccccc3C)o2)CC1 -40.1%, Cc1cc(=O)n(CC(=O)N2CCN(c3ccccc3F)CC2)c2c1c(C)nn2C -54.2%, CCc1ccccc1NC(=O)c1cnc(N2CCCCC2)c2ccccc12 -23.2%, COc1cc(C(=O)NCC(c2cccs2)S(=O)(=O)c2cccs2)cc(OC)c1OC (stereo not given) -12.6%, CCOc1ccc(CCNC(=O)Cn2nc(CC)n3c(cc4ccccc43)c2=O)cc1 -1.74%, Cc1cc(Nc2cc(N3CCN(C)CC3)nc(C=Cc3ccccc3)n2)n[nH]1 -32% [at 116 µM, percent change from vehicle, -100% = no light], CCOC(=O)c1[nH]c(C)c(CCC(=O)Nc2cc(C)ccc2OC)c1C -12.3%, CCN1C(=O)c2ccccc2S(=O)c2ccc(C(=O)N3CCN(c4cc(Cl)ccc4C)CC3)cc21 (stereo not given) -46%, Cc1ccccc1CN1CCC(CNC(=O)c2c(C)oc3ncnc(N4CCCCC4)c23)CC1 -5.55%, CCOc1ccc(CCNC(=O)C2=C(C)C(=O)OC23CCCCC3)cc1 -20.6%, CCC(Sc1nc(-c2ccccc2F)nc2c1Cc1c(CO)cnc(C)c1O2)C(=O)Nc1cc(C)ccc1C (stereo not given) -14.9%, Fc1ccc(-c2noc3ncnc(NCc4ccc(Cl)cc4)c23)cc1 -44.8%, O=C(CCn1c(=O)c2cccn2c2cccnc21)NCc1ccc(F)cc1 -6.05%, CN(Cc1ccccc1)C(=O)c1ccc2c(c1)N(Cc1ccccc1Cl)C(=O)c1ccccc1S2 -38.8%, COc1ccc(Cl)cc1NC(=O)c1nn(-c2ccc(C)cc2)c(=O)n(C)c1=O -8.32%, CCOC(=O)c1c(C)[nH]c(C)c1S(=O)(=O)N1CCCC(C(=O)N2CCN(c3cccc(C)c3C)CC2)C1 (stereo not given) -22.8%, Cc1cccc(CNC(=O)CS(=O)(=O)c2cccc3nsnc23)c1 -14%, COc1cc(NC(=O)Cn2cnc(S(=O)(=O)N3CCCC3)c2)cc(OC)c1OC -5.17%, COC(=O)C1=C(C)NC(C)=C(C(=O)OC(C)C)C1c1cccc2nonc12 (stereo not given), CCN(C(=O)c1cnc2ccc(C)cn2c1=O)c1ccccc1 14.6%, CCOC(=O)C1CCN(C(c2cccc(F)c2)c2c(O)cc(C)n(CCOC)c2=O)CC1 (stereo not given) -17.9%, O=C1OC(OC(=O)c2cccnc2Nc2cccc(C(F)(F)F)c2)c2ccccc21 (stereo not given) -9.84%, CCc1ccc(NC(=O)C2CCN(c3nn4c(=O)cc(C)nc4s3)CC2)cc1 -14.2%, O=C(Nc1ccc2c(c1)CCCN2C(=O)c1cccs1)c1ccccc1Cl -23.8%, N#C[C@H]1C[C@H]2C[C@@H]2N1C(=O)[C@@H](N)C12CC3CC(CC(O)(C3)C1)C2 -14.2%
